This passage reports binding signal results from publication PMC9911399, “Two distinct binding modes provide the RNA-binding protein RbFox with extraordinary sequence specificity”.

T1: RBFOX1 RRM (Homo sapiens, UniProt Q9NWB1 109-208)
T1 sequence: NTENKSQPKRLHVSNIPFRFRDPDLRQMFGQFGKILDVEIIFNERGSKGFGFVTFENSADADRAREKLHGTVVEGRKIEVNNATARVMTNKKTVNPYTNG

B1: CAUGGGC (DNA:RNA)
RNA: GGGAGACCGGAAUUCAGAUUGUCCCAUGGGCUUAAAUCCCGUCGUAGCCACCA
DNA 1: CAATCTGAATTCCGGTCTCCC
DNA 2: TGGTGGCTACGACGGGATT
B2: CUCAUAU (DNA:RNA)
RNA: B1 RNA with A26U, U27C, G28A, G29U, G30A, C31U
DNA 1: CAATCTGAATTCCGGTCTCCC
DNA 2: TGGTGGCTACGACGGGATT
B3: GCGCUUA (DNA:RNA)
RNA: GGGAGACCGGAAUUCAGAUUGUCCGCGCUUAUUAAAUCCCGUCGUAGCCACCA
DNA 1: CAATCTGAATTCCGGTCTCCC
DNA 2: TGGTGGCTACGACGGGATT
B4: ACCUAGU (DNA:RNA)
RNA: B1 RNA with C25A, A26C, U27C, G28U, G29A, C31U
DNA 1: CAATCTGAATTCCGGTCTCCC
DNA 2: TGGTGGCTACGACGGGATT
B5: GACGGGG (DNA:RNA)
RNA: B1 RNA with C25G, U27C, C31G
DNA 1: CAATCTGAATTCCGGTCTCCC
DNA 2: TGGTGGCTACGACGGGATT
B6: CCGUGUG (DNA:RNA)
RNA: B3 RNA with G25C, C28U, U29G, A31G
DNA 1: CAATCTGAATTCCGGTCTCCC
DNA 2: TGGTGGCTACGACGGGATT
B7: UUUUUAU (DNA:RNA)
RNA: B1 RNA with C25U, A26U, G28U, G29U, G30A, C31U
DNA 1: CAATCTGAATTCCGGTCTCCC
DNA 2: TGGTGGCTACGACGGGATT
B8: UCGGCGC (DNA:RNA)
RNA: B1 RNA with C25U, A26C, U27G, G29C
DNA 1: CAATCTGAATTCCGGTCTCCC
DNA 2: TGGTGGCTACGACGGGATT
B9: ACUGGUG (DNA:RNA)
RNA: B1 RNA with C25A, A26C, G30U, C31G
DNA 1: CAATCTGAATTCCGGTCTCCC
DNA 2: TGGTGGCTACGACGGGATT
B10: AUCUGGU (DNA:RNA)
RNA: B1 RNA with C25A, A26U, U27C, G28U, C31U
DNA 1: CAATCTGAATTCCGGTCTCCC
DNA 2: TGGTGGCTACGACGGGATT
B11: CUGAAUG (DNA:RNA)
RNA: B3 RNA with G25C, C26U, C28A, U29A, A31G
DNA 1: CAATCTGAATTCCGGTCTCCC
DNA 2: TGGTGGCTACGACGGGATT
B12: AGAAACA (DNA:RNA)
RNA: B3 RNA with G25A, C26G, G27A, C28A, U29A, U30C
DNA 1: CAATCTGAATTCCGGTCTCCC
DNA 2: TGGTGGCTACGACGGGATT
B13: CACUAAC (DNA:RNA)
RNA: B1 RNA with U27C, G28U, G29A, G30A
DNA 1: CAATCTGAATTCCGGTCTCCC
DNA 2: TGGTGGCTACGACGGGATT
B14: UCGUGGU (DNA:RNA)
RNA: B1 RNA with C25U, A26C, U27G, G28U, C31U
DNA 1: CAATCTGAATTCCGGTCTCCC
DNA 2: TGGTGGCTACGACGGGATT
B15: AUCUGGC (DNA:RNA)
RNA: B1 RNA with C25A, A26U, U27C, G28U
DNA 1: CAATCTGAATTCCGGTCTCCC
DNA 2: TGGTGGCTACGACGGGATT
B16: UUCUCAG (DNA:RNA)
RNA: GGGAGACCGGAAUUCAGAUUGUCCUUCUCAGUUAAAUCCCGUCGUAGCCACCA
DNA 1: CAATCTGAATTCCGGTCTCCC
DNA 2: TGGTGGCTACGACGGGATT
B17: AGUAGAA (DNA:RNA)
RNA: B1 RNA with C25A, A26G, G28A, G30A, C31A
DNA 1: CAATCTGAATTCCGGTCTCCC
DNA 2: TGGTGGCTACGACGGGATT
B18: GCGUCCG (DNA:RNA)
RNA: B3 RNA with C28U, U29C, U30C, A31G
DNA 1: CAATCTGAATTCCGGTCTCCC
DNA 2: TGGTGGCTACGACGGGATT
B19: GGACGUU (DNA:RNA)
RNA: B3 RNA with C26G, G27A, U29G, A31U
DNA 1: CAATCTGAATTCCGGTCTCCC
DNA 2: TGGTGGCTACGACGGGATT
B20: GCGUGUG (DNA:RNA)
RNA: B3 RNA with C28U, U29G, A31G
DNA 1: CAATCTGAATTCCGGTCTCCC
DNA 2: TGGTGGCTACGACGGGATT
B21: CUGUACA (DNA:RNA)
RNA: B3 RNA with G25C, C26U, C28U, U29A, U30C
DNA 1: CAATCTGAATTCCGGTCTCCC
DNA 2: TGGTGGCTACGACGGGATT
B22: UACACUC (DNA:RNA)
RNA: B16 RNA with U26A, U28A, A30U, G31C
DNA 1: CAATCTGAATTCCGGTCTCCC
DNA 2: TGGTGGCTACGACGGGATT
B23: CACCUCU (DNA:RNA)
RNA: B1 RNA with U27C, G28C, G29U, G30C, C31U
DNA 1: CAATCTGAATTCCGGTCTCCC
DNA 2: TGGTGGCTACGACGGGATT
B24: GAAGGUA (DNA:RNA)
RNA: B1 RNA with C25G, U27A, G30U, C31A
DNA 1: CAATCTGAATTCCGGTCTCCC
DNA 2: TGGTGGCTACGACGGGATT
B25: CCAUUGA (DNA:RNA)
RNA: B3 RNA with G25C, G27A, C28U, U30G
DNA 1: CAATCTGAATTCCGGTCTCCC
DNA 2: TGGTGGCTACGACGGGATT
B26: AAGUAAA (DNA:RNA)
RNA: B3 RNA with G25A, C26A, C28U, U29A, U30A
DNA 1: CAATCTGAATTCCGGTCTCCC
DNA 2: TGGTGGCTACGACGGGATT
B27: UAUGUUU (DNA:RNA)
RNA: B1 RNA with C25U, G29U, G30U, C31U
DNA 1: CAATCTGAATTCCGGTCTCCC
DNA 2: TGGTGGCTACGACGGGATT
B28: UUAGGAG (DNA:RNA)
RNA: B16 RNA with C27A, U28G, C29G
DNA 1: CAATCTGAATTCCGGTCTCCC
DNA 2: TGGTGGCTACGACGGGATT
B29: UUCAAUU (DNA:RNA)
RNA: B16 RNA with U28A, C29A, A30U, G31U
DNA 1: CAATCTGAATTCCGGTCTCCC
DNA 2: TGGTGGCTACGACGGGATT
B30: UAGCUUA (DNA:RNA)
RNA: B3 RNA with G25U, C26A
DNA 1: CAATCTGAATTCCGGTCTCCC
DNA 2: TGGTGGCTACGACGGGATT
B31: GAUCACG (DNA:RNA)
RNA: B1 RNA with C25G, G28C, G29A, G30C, C31G
DNA 1: CAATCTGAATTCCGGTCTCCC
DNA 2: TGGTGGCTACGACGGGATT

Positions count from the first letter of the chain named. The list shows a part of the results.

In this test the target is T1, RBFOX1 RRM. The test can be described thus: EMSA; HiTS-Eq, 1 nM pool, 10 min; buffer printed only for the single-RNA assays: 10 mM Tris pH 7.5, 150 mM NaCl, 3.4 mM EDTA, 0.001% NP-40, 30 C. To be noted: tags: His6 N-terminal (pET28a); label: 5' 32P. In outline: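 Relative association constants, normalised to the cognate motif, were derived by comparing read counts of each RNA species with those of the control reaction. The RNA sequenced was the free fraction, separated by 8% native PAGE after a 10 min equilibration in 50 µL of 1 nM 5′-radiolabelled RNA (7 randomized nucleotides) with increasing concentrations of purified wild-type or mutant RbFox RRM.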
A general note: Mobility shift assays separate free from complexed probe on a gel.
As to B1, the binding signal was 0.0064 KA relative to UGCAUGU.

In the case of B2, the binding signal is 0.00202 KA relative to UGCAUGU.

For the molecule B3, the binding signal is 0.00615 KA relative to UGCAUGU.

Consider B4, for which the binding signal was 0.00342 KA relative to UGCAUGU.

Turning to B5, the binding signal was 0.0168 KA relative to UGCAUGU.

For B6, the binding signal was 0.0133 KA relative to UGCAUGU.

Consider B7, for which the binding signal was 0.0088 KA relative to UGCAUGU.

In the case of B8, the binding signal was 0.0154 KA relative to UGCAUGU.

Turning to B9, the binding signal was 0.0226 KA relative to UGCAUGU.

For the molecule B10, the binding signal was 0.0102 KA relative to UGCAUGU.

For the molecule B11, the binding signal is 0.0348 KA relative to UGCAUGU.

Turning to B12, the binding signal was 0.00355 KA relative to UGCAUGU.

Turning to B13, the binding signal is 0.000584 KA relative to UGCAUGU.

With B14, the binding signal was 0.0169 KA relative to UGCAUGU.

For B15, the binding signal is 0.0101 KA relative to UGCAUGU.

Consider B16, for which the binding signal was 0.0126 KA relative to UGCAUGU.

As for B17, the binding signal was 0.00977 KA relative to UGCAUGU.

Take B18: the binding signal was 0.0136 KA relative to UGCAUGU.

In the case of B19, the binding signal was 0.0176 KA relative to UGCAUGU.

B20: the binding signal is 0.0222 KA relative to UGCAUGU.

Turning to B21, the binding signal is 0.00497 KA relative to UGCAUGU.

As for B22, the binding signal was 0.00209 KA relative to UGCAUGU.

For the molecule B23, the binding signal was 0.00165 KA relative to UGCAUGU.

Turning to B24, the binding signal is 0.011 KA relative to UGCAUGU.

As for B25, the binding signal was 0.00494 KA relative to UGCAUGU.

Consider B26, for which the binding signal is 0.00115 KA relative to UGCAUGU.

As for B27, the binding signal is 0.0156 KA relative to UGCAUGU.

Regarding B28, the binding signal is 0.00364 KA relative to UGCAUGU.

Regarding B29, the binding signal was 0.00386 KA relative to UGCAUGU.

As for B30, the binding signal is 0.00914 KA relative to UGCAUGU.

For the molecule B31, the binding signal is 0.00958 KA relative to UGCAUGU.
